Reference: publication PMC4336329 (PLoS ONE, 2015)
Out of some 310,000 compounds screened, about 14,000 (4.5%) showed an effect of 50% or more. Effects have a minus sign here. The list shows a part of the results.

The compounds below were run against human ether-à-go-go-related gene (hERG) potassium channel (human, UniProt Q12809) (assay: primary screen, population patch clamp on CHO cells stably expressing hERG).
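Also: peak tail current of the secondary pulse compared with the same well before compound.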

human ether-à-go-go-related gene (hERG) potassium channel, sequence (Q12809 whole entry, looked up): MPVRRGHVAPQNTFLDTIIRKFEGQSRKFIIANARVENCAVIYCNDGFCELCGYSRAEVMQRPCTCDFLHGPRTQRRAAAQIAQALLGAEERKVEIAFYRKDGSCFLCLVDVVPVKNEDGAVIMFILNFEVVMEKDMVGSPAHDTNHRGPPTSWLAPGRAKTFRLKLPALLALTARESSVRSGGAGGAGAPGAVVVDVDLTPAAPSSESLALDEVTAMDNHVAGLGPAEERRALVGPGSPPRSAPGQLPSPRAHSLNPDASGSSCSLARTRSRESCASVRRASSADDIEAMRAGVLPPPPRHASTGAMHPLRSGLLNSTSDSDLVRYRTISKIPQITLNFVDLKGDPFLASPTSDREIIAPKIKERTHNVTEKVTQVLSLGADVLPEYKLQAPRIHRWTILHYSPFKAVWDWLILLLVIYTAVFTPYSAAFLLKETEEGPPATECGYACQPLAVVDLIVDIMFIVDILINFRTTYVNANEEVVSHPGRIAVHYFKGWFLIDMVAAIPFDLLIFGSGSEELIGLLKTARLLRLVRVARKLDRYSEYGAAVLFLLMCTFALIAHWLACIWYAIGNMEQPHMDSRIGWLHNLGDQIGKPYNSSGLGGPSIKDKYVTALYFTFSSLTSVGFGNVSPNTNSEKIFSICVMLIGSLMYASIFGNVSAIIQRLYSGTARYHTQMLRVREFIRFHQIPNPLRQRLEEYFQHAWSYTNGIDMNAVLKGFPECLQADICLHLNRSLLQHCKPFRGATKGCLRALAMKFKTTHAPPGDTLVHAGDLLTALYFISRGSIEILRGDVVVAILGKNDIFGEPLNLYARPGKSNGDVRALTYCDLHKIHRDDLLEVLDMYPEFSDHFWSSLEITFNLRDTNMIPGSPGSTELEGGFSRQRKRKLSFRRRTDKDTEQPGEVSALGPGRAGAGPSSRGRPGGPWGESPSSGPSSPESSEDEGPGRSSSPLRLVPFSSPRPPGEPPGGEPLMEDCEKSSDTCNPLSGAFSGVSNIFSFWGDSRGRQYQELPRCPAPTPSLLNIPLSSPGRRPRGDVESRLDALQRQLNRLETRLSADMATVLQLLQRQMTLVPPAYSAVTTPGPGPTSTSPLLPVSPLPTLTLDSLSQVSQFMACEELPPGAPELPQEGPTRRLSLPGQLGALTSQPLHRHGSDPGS

How did the “hERG current change (%, negative = inhibition) at 10uM” value turn out when `Cc1cccc(N2CCN(C3=NC(=O)C(Cc4ccccc4)S3)CC2)c1` (stereo not drawn) was run?
Its value is -30.7%.

How did the “hERG current change (%, negative = inhibition) at 10uM” value turn out when `O=C(COC(=O)CC(c1ccccc1)c1ccccc1)NCc1ccccc1` was run?
Its value is 7.51%.

Which “hERG current change (%, negative = inhibition) at 10uM” value does the source give for `CCC(c1nnnn1Cc1ccco1)N(Cc1cc2cc(C)cc(C)c2[nH]c1=O)CC1CCCO1` (stereo not drawn) here?
The value was -13%.

How did the “hERG current change (%, negative = inhibition) at 10uM” value turn out when `Cc1ccc(C2=NCCn3nc4cc(C(F)(F)F)ccc4c32)cc1` was run?
Its value is 4.21%.

How did the “hERG current change (%, negative = inhibition) at 10uM” value turn out when `CCCN1CCC(=O)N([C@H](CSc2ccccc2)c2ccccc2)CC1` was run?
Its value is -77.2%.

With `O=C(O)c1ccccc1-c1ccccc1C(=O)Nc1ccc(OC(F)(F)F)cc1` as the compound, how does the “hERG current change (%, negative = inhibition) at 10uM” value read?
Its value is 14.1%.

With `CCCCN(C)CCNC(=O)c1ccc(Cn2c(=S)[nH]c3ccc(Br)cc3c2=O)cc1` as the compound, how does the “hERG current change (%, negative = inhibition) at 10uM” value read?
Its value is -41%.

Which “hERG current change (%, negative = inhibition) at 10uM” value does the source give for `O=C(O)C1(P(=O)(c2ccccc2)c2ccccc2)CCCC1` here?
The value was -17%.

How did the “hERG current change (%, negative = inhibition) at 10uM” value turn out when `Cc1ccc(S(=O)(=O)N2CCC(C(=O)Nc3ncccc3O)CC2)cc1` was run?
The value was -27.2%.

For `CC(C)(O)C#Cc1ccc(C(=O)N2CCN(c3ccccc3)CC2)cc1`, which “hERG current change (%, negative = inhibition) at 10uM” value is on record?
Its value is 11.3%.

`COc1ccc(N(C(=O)c2snc(C(N)=O)c2N)C(C(=O)NC2CCCC2)c2ccco2)cc1` (stereo not drawn) was tested. Which “hERG current change (%, negative = inhibition) at 10uM” value did it give?
Its value is -1.76%.

With `CCOC(=O)CNC(=O)c1ccc(C)cc1` as the compound, how does the “hERG current change (%, negative = inhibition) at 10uM” value read?
Its value is 4.88%.

With `O=S(=O)(Nc1nc2ccccc2nc1NCCN1CCOCC1)c1cccc(Cl)c1` as the compound, how does the “hERG current change (%, negative = inhibition) at 10uM” value read?
Its value is 3.15%.

With `S=C(Cc1ccc(-c2ccccc2)cc1)N1CCOCC1` as the compound, how does the “hERG current change (%, negative = inhibition) at 10uM” value read?
Its value is -11.9%.

For `COc1cc(OC)cc(C(=O)N[C@H](C(=O)Nc2nc(-c3ccc(F)c(F)c3)cs2)C(C)C)c1`, which “hERG current change (%, negative = inhibition) at 10uM” value is on record?
Its value is 8.68%.

For `O=C(Nc1nnc(C2=COCCO2)o1)c1ccc(Br)cc1`, which “hERG current change (%, negative = inhibition) at 10uM” value is on record?
The value was -0.63%.

How did the “hERG current change (%, negative = inhibition) at 10uM” value turn out when `Cc1ccc2[nH]c(C(=O)O)c(NC(=O)CN3CCN(c4cccc(C)c4C)CC3)c2c1.Cl` was run?
The value was 13.1%.

How did the “hERG current change (%, negative = inhibition) at 10uM” value turn out when `CN(C(=O)/C=C/c1cnc2ccccc2c1)C1CCCCC1` was run?
The value was -13.3%.

With `CC(c1ccccc1)N1C(=O)NC(NC(=O)c2cccnc2)(C(F)(F)F)C1=O` (stereo not drawn) as the compound, how does the “hERG current change (%, negative = inhibition) at 10uM” value read?
Its value is -2.4%.

How did the “hERG current change (%, negative = inhibition) at 10uM” value turn out when `COCCN1Cc2cccc(C(=O)N3CCN(c4cc(C)ccc4C)CC3)c2C1=O` was run?
The value was -16.5%.

Which “hERG current change (%, negative = inhibition) at 10uM” value does the source give for `CC(=O)c1ccc(NC(=O)c2ccc(NC(=O)CCS(=O)(=O)c3cccs3)cc2)cc1` here?
The value was -0.819%.

How did the “hERG current change (%, negative = inhibition) at 10uM” value turn out when `O=C(N/N=C/c1cccc(OC(=O)N2CCOCC2)c1)c1cccs1` was run?
Its value is -0.341%.

With `CC(C)c1ccc(N(CC(=O)O)S(=O)(=O)c2cccnc2)cc1` as the compound, how does the “hERG current change (%, negative = inhibition) at 10uM” value read?
The value was 0.506%.

`COC(=O)C1(c2ccccc2)NC(c2ccc(O)cc2)C2C(=O)N(c3ccc4c(c3)OCO4)C(=O)C21` (stereo not drawn) was tested. Which “hERG current change (%, negative = inhibition) at 10uM” value did it give?
Its value is -39.4%.

With `CC(C)OC(=O)c1nnc(Cc2ccc(Cl)cc2)o1` as the compound, how does the “hERG current change (%, negative = inhibition) at 10uM” value read?
Its value is 7.23%.

With `Cc1nc2nc(-c3ccco3)[nH]n2c(=O)c1Cc1ccccc1` as the compound, how does the “hERG current change (%, negative = inhibition) at 10uM” value read?
The value was -20.5%.

How did the “hERG current change (%, negative = inhibition) at 10uM” value turn out when `CN(CC(=O)Nc1ccc(Cl)c(Cl)c1)C(=O)CN1C(=O)NC2(CCCC2)C1=O` was run?
The value was -4.3%.

`O=c1[nH]c(CN2CCOCC2)nc2ccccc12` was tested. Which “hERG current change (%, negative = inhibition) at 10uM” value did it give?
The value was 0.449%.

How did the “hERG current change (%, negative = inhibition) at 10uM” value turn out when `CCNC(=O)COc1ccc(S(=O)(=O)Nc2ccccc2)cc1` was run?
The value was -1.85%.

For `COc1ccc(/C=C/C(=O)NC2CCCCCCC2)cc1S(=O)(=O)N1CCOCC1`, which “hERG current change (%, negative = inhibition) at 10uM” value is on record?
Its value is -6.43%.

How did the “hERG current change (%, negative = inhibition) at 10uM” value turn out when `COc1ccc([C@@H]2C=C(C(=O)O)O[C@H](OCCCCO)C2)cc1` was run?
Its value is 14.7%.

Which “hERG current change (%, negative = inhibition) at 10uM” value does the source give for `c1csc(Cc2nn3c(-c4n[nH]c5c4CCC5)nnc3s2)c1` here?
The value was -15.8%.

Which “hERG current change (%, negative = inhibition) at 10uM” value does the source give for `COc1ccc([C@@H]2CC=C(C(=O)O)[C@H](c3cccc(Cl)c3)N2S(=O)(=O)c2ccc(Cl)cc2)cc1` here?
The value was 5.62%.

With `Cc1c(Cl)cccc1N/C(SCC(=O)N1CCCCCC1)=C(/C#N)c1nc2ccccc2s1` as the compound, how does the “hERG current change (%, negative = inhibition) at 10uM” value read?
The value was 0.438%.

Which “hERG current change (%, negative = inhibition) at 10uM” value does the source give for `Cc1ccc(-c2ccc(=O)n(CCC(=O)N3CCN(c4ccccc4)CC3)n2)cc1` here?
The value was -49.1%.

`c1ccc(C[C@H]2CNCCN2CC2CCCCC2)cc1` was tested. Which “hERG current change (%, negative = inhibition) at 10uM” value did it give?
The value was -18.1%.

For `CCN1CCN(C(=O)CSc2nc(N)cc(N)n2)CC1`, which “hERG current change (%, negative = inhibition) at 10uM” value is on record?
The value was 44.8%.

With `COc1cc(CNc2ccc3[nH]c(=O)[nH]c3c2)ccc1OCc1cccc(C)c1` as the compound, how does the “hERG current change (%, negative = inhibition) at 10uM” value read?
Its value is 7.12%.

Which “hERG current change (%, negative = inhibition) at 10uM” value does the source give for `O=C(c1cc(Br)ccc1OC(F)F)N1CCN2CCCC2C1` (stereo not drawn) here?
Its value is -4.15%.

With `C#Cc1ccc([C@@H]2C=C(C(=O)N3CCOCC3)O[C@H](OCc3ccc(CO)cc3)C2)cc1` as the compound, how does the “hERG current change (%, negative = inhibition) at 10uM” value read?
Its value is -27.6%.

For `Cc1nc2scc(C)n2c(=O)c1S(=O)(=O)NCC1CCN(Cc2ccc(Cl)cc2)CC1`, which “hERG current change (%, negative = inhibition) at 10uM” value is on record?
Its value is -50.1%.

With `CCOc1ccc(C2Nc3cccc4cccc(c34)N2)cc1OC` as the compound, how does the “hERG current change (%, negative = inhibition) at 10uM” value read?
The value was 9.42%.
